Results published in ChEMBL document CHEMBL5724801, “EUbOPEN Chemogenomics Library - Multiplex” (2024).
Certain results were filed several times, with different values. This is not the full list of results. An entry can have further records. Values that stand side by side repeat one measurement across runs, samples, wells, individuals or studies.

Legend:
Format in all cases: toxicity, cell-based
[1] = tested on: Fibroblast; test: Multiplex assay against human fibroblast
Summary of the method: (§1)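 Compound was added to live cells that had been stained at seeding with Hoechst33342, BioTracker Green Microtubule Cytoskeleton Dye, MitoTracker Red and Annexin V Alexa Fluor 680, and imaging followed on a CQ1 microscope at 37°C and 5% CO2. CellPathfinder machine-learning gating divided cells into Hoechst high-intensity objects or normal cells, normal cells into healthy, pyknosed or fragmented nuclei, and pyknosed cells into mitotic or apoptotic. Tubulin, mitochondrial-mass and membrane-permeability phenotypes are per cents of healthy-nucleus cells.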

[2] = tested on: U2OS; test: Multiplex assay against U2OS; settings: human; summary of the method: as §1
[3] = tested on: HEK-293T; test: Multiplex assay against HEK293T; settings: human; summary of the method: as §1
[4] = 12 h, 1 µM, compound concentration 1 uM
[5] = 12 h, 10 µM, compound concentration 10 uM
[6] = 48 h, 1 µM, compound concentration 1 uM
[7] = 24 h, 1 µM, compound concentration 1 uM
[8] = 48 h, 10 µM, compound concentration 10 uM
[9] = 24 h, 10 µM, compound concentration 10 uM

Row | Compound | Population Apoptotic (%) [1, 5] | Population Mitochondria Different-Phenotype (%) [1, 6] | Total Cell Count [2, 6] | Population Healthy Nuclei (%) [3, 4] | Population Tubulin-Different-Phenotype (%) [3, 4] | Population Healthy Nuclei (%) [3, 5] | Population Tubulin-Different-Phenotype (%) [3, 5] | Population Pyknosed Nuclei (%) [3, 6] | Population Tubulin-Different-Phenotype (%) [3, 6] | Total Cell Count [3, 6] | Population Pyknosed Nuclei (%) [3, 8] | Population Tubulin-Different-Phenotype (%) [3, 8] | Total Cell Count [3, 8] | Population Mitochondria Different-Phenotype (%) [2, 9] | Total Cell Count [3, 7] | Population Healthy Nuclei (%) [3, 9] | further results
1 | Cc1cc(C(C#N)c2ccc(Cl)cc2)c(Cl)cc1NC(=O)c1cc(I)cc(I)c1O (stereo not drawn) [CLOSANTEL] | 4.84% and 21.43% | 13.37% and 1.62% | 1332 and 299 | 55.02% and 17.22% | 3.87% and 35.48% | 59.2% and 13.21% | 4.85% and 19.05% | 9.71% and 30.65% | 1.49% and 35.5% | 1390 and 250 | 9.3% and 32.37% | 0.59% and 33.15% | 1356 and 278 |  |  |  | Population Apoptotic (%) [1, 4]: 2.5% and 12.9%; Total Cell Count [2, 4]: 532 and 144; Total Cell Count [2, 7]: 727 and 167; Population Mitochondria Different-Phenotype (%) [3, 4]: 41.44% and 9.68%; Population Mitochondria Different-Phenotype (%) [3, 5]: 35.92% and 9.52%; Population Apoptotic (%) [3, 8]: 3.97% and 20%
2 | Cl.Cl.OCCOCCN1CCN(C(c2ccccc2)c2ccc(Cl)cc2)CC1 (stereo not drawn) [HYDROXYZINE HYDROCHLORIDE] |  |  |  |  |  |  |  |  |  |  |  |  |  |  |  |  | Population Mitotic Cells (%) [1, 8]: 19% and 62%; Population Mitotic Cells (%) [2, 5]: 41% and 11%; Population Mitotic Cells (%) [2, 7]: 4% and 22%; Population Hoechst High Intensity Objects (%) [3, 7]: 2% and 13%
3 | COC(=O)C1=C(C)NC(C)=C(C(=O)OC(C)C)C1c1cccc2nonc12 (stereo not drawn) [ISRADIPINE] | 5.36% and 22.45% | 16.11% and 4.19% | 829 and 257 | 65.02% and 16.79% | 4.76% and 34.78% | 50% and 8.97% | 7.14% and 71.43% |  | 0.88% and 20.36% | 1443 and 292 | 13.96% and 48.55% | 3.36% and 63.56% |  | 0.46% and 16.95% | 549 and 175 | 67.92% and 17.82% | Population Apoptotic (%) [1, 9]: 1.89% and 19.15%; Population Fragmented Nuclei (%) [2, 5]: 0.8% and 14.78%; Population Fragmented Nuclei (%) [2, 9]: 3.11% and 13.39%
4 | CC(C)(C)c1cc(C(C)(C)C)c(NC(=O)c2c[nH]c3ccccc3c2=O)cc1O [IVACAFTOR] |  | 20% and 4.79% |  |  | 2.94% and 20% | 49.64% and 12.26% | 1.46% and 31.58% | 8.39% and 43.5% | 0.62% and 44.44% | 1267 and 178 | 12.88% and 49.71% | 0.62% and 32.1% | 762 and 178 | 1.36% and 41.82% | 519 and 146 | 67.04% and 17.11% | Population Fragmented Nuclei (%) [1, 4]: 15.03% and 5%; Population Mitochondria Different-Phenotype (%) [1, 4]: 17.39% and 4.44%; Population Apoptotic (%) [1, 6]: 25% and 5.88%; Population Mitochondria Different-Phenotype (%) [2, 5]: 0.4% and 28.83%; Population Membrane Permeable-Phenotype (%) [2, 9]: 5.1% and 20%; Population Fragmented Nuclei (%) [2, 8]: 2.6% and 13.13%; Population Mitochondria Different-Phenotype (%) [2, 8]: 1.49% and 32.58%; Population Pyknosed Nuclei (%) [3, 7]: 21% and 65.07%; Population Mitochondria Different-Phenotype (%) [3, 9]: 37.6% and 11.54%; Population Mitochondria Different-Phenotype (%) [3, 6]: 11.04% and 34.34%
